Source: publication PMC6919601, “Identification of Plasmodium dipeptidyl aminopeptidase allosteric inhibitors by high throughput screening” (PLoS ONE, 2019)
Hit rate of the full screen: of about 110,000 compounds, about 230 (0.21%) showed an effect of 50% or more. This is one part of the list.

Each compound was assayed against DPAP1 (Plasmodium falciparum, UniProt Q8IIJ9) (assay: primary screen, percent inhibition; read by cleavage of a fluorogenic dipeptide substrate; higher = more effect of the substance).
Set-up: species or system P. falciparum D10 trophozoite lysates; single well
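Further: 30 min substrate incubation versus DMSO and 10 µM JCP410 controls.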

Chain of DPAP1 (Q8IIJ9 whole entry, looked up): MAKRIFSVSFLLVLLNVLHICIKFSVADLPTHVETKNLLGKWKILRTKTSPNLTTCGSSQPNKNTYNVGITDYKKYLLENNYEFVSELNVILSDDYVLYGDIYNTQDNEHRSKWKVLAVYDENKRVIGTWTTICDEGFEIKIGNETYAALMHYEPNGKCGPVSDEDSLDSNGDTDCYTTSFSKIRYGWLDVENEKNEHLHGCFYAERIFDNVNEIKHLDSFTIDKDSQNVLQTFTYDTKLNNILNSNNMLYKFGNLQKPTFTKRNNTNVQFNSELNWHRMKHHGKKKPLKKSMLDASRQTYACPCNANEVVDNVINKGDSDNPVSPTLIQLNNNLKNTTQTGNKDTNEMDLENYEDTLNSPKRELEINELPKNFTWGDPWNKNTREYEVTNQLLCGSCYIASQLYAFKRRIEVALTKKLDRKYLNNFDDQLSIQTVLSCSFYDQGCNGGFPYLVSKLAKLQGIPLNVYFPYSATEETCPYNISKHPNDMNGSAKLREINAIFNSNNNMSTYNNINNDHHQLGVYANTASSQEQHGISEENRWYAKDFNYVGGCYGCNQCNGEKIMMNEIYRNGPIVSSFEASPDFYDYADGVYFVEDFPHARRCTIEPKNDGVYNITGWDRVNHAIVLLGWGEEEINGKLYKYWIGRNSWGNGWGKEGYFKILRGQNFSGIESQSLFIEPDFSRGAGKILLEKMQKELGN

SMILES | % Inhibition @ 10 uM [%]
CCOC(=O)c1c(C)c(C(=O)NCc2ccc(C)cc2)c(C)n1C | 0.0579
Cc1ccc(/C=C2\CN(C)C/C(=C\c3ccc(C)cc3)C2=O)cc1 | 1.07
COc1ccc(-c2nc3ccccc3c(=O)n2CCCn2ccnc2)cc1 | -2.8
CC(C)(C)c1cc(CN(CCO)CCO)c(O)c(C(C)(C)C)c1 | 4.8
COc1cc2c(cc1OC)C(c1ccccc1)NCC2 (stereo not drawn) | -1.8
COc1ccc(OC)c(/C=C2/SC(Nc3cccc(C(=O)O)c3)=NC2=O)c1 | -1.44
CCOc1ccc(-n2cc(-c3ccccc3)c3c(NCCCO)ncnc32)cc1 | 4.61
CCCOc1ccc(N2C(=O)CC(N3CCN(c4ccc(F)cc4)CC3)C2=O)cc1 (stereo not drawn) | -3.72
COC(=O)c1c(/N=C/N(C)C)c(C#N)c2n1CCCC2 | 3.03
CCc1nc2ccc(C(=O)N3CCC(C(N)=O)CC3)cc2nc1CC | -6.62
CCOc1ccc(C2Nn3c(nnc3-c3ccccc3)SC2C(=O)NCc2ccccc2)cc1 (stereo not drawn) | -7.35
Cc1cccc(N2CCN(C(=O)c3ccco3)CC2)c1C | -5.14
CC(C)c1ccc(S(=O)(=O)N2CCN(c3ccc(F)cc3)CC2)cc1 | -5.4
C=C1CC2C(CCC3(C)C2CCC3(O)C(C)=O)C2(C)CCC(=O)C=C12 (stereo not drawn) | -0.744
O=C(Cn1cnc2c(nnn2-c2cccc(Cl)c2)c1=O)NCC1CCCO1 (stereo not drawn) | -2.16
COc1ccc(OC)c(-n2nnc(-c3nc(-c4ccccc4)no3)c2N)c1 | -1.59
COc1ccc(C(=O)C2=C(O)C(=O)N(c3nc(C)c(C(C)=O)s3)C2c2ccccc2)cc1 (stereo not drawn) | -0.425
CCC(C)NC(=O)c1cc(-c2ccc(Cl)s2)nc2ccccc12 (stereo not drawn) | -6.5
COc1ccccc1C(=O)Nc1ccc([S+](N)O)cc1 (stereo not drawn) | -1.29
O=C(O)C1C2CC=CC2c2cc([N+](=O)[O-])cc3c2N1CC1CC=CC31 (stereo not drawn) | 0.345
COc1ccc(Cl)cc1NC(=O)CN(c1ccc2c(c1)OCCO2)S(=O)(=O)c1ccccc1 | -2.32
COc1ccc2c(c1)c(C)c(C)n2CCC(=O)O | -0.28
O=C1C(N2CCCC2)=C(N2CCN(S(=O)(=O)c3ccccc3)CC2)C(=O)c2ccccc21 | -1.52
C=CCOc1ccc(/C=c2\sc3nc(C4COc5ccccc5O4)nn3c2=O)cc1OC (stereo not drawn) | 1.91
COc1cc(C2C3=C(O)CCCC3=NC(C)=C2C(=O)Nc2ccccc2C)cc(Br)c1O (stereo not drawn) | 2.38
Cc1ccc(C(=O)O)cc1S(=O)(=O)Nc1cccc(F)c1 | -1.96

SMILES | % Inhibition @ 10 uM [%]
COC(=O)c1cc(CN2CCOCC2)ccc1O | -0.958
OC1CCN(Cc2ccc(Br)s2)CC1 | -1.92
O=C(NCCCn1ccnc1)c1ccccc1C(=O)c1ccccc1 | 1.37
COc1ccc(-c2noc(CNC(=O)CCC3CCCC3)n2)cc1 | -4.82
O=C(NC1CCCCC1)/C(=C/c1ccc2c(c1)OCO2)NC(=O)c1ccc(Br)cc1 | 4.95
COCCCNc1ncnc2c1nc1n2CCCCC1 | -2.17
CCOC(=O)c1c(S(=O)(=O)NCCCN2CCCC2=O)c(C)n(C)c1C | -1.77
CCOC(=O)c1cccnc1SC(CC)C(=O)N1CCOCC1 (stereo not drawn) | 3.66
c1cc2c(cc1-c1nn3cnnc3s1)OCO2 | 3.88
Fc1ccc(NCc2ccc3c(c2)OCCO3)cc1F | -5.31
Cc1ccc(CNC(=O)C(C)Oc2ccccc2)c(S)n1 (stereo not drawn) | 2.18
CCC(C(=O)NCCOC)n1c2ccccc2c2cnnc(O)c21 (stereo not drawn) | -2
CC(=O)Nc1ccc2c(c1)C(=O)N(c1ccc3ccccc3c1)C2=O | -7.09
NC(=O)c1c(NC(=O)c2cc(-c3ccc(O)cc3)on2)sc2c1CCCC2 | 0.723
CCOc1ccc(-n2nc3ccc(N)cc3n2)cc1 | 2.65
CCOC(=O)c1cnc(SCc2nc(-c3cccs3)oc2C)nc1N | 1.44
CCOc1ccc(-c2[nH]nc3c2C(c2ccccc2F)C(C#N)=C(N)O3)c(OCC)c1 (stereo not drawn) | 2.67
CC(=O)c1cn(CCCn2cc(C(C)=O)c(=O)[nH]c2=O)c(=O)[nH]c1=O | 2.13
CCCSc1nc(O)c2cnn(-c3ccccc3)c2n1 | -1.54
Oc1ccccc1/C=C/c1ccc2ccccc2n1 | 1.27
O=C(C1CCN(c2nnc(N3CCCC3=O)s2)CC1)N1CCN(c2ccccn2)CC1 | -8.54
c1ccc2[nH]c(C3CCCN3)nc2c1 (stereo not drawn) | 1.12
CSc1ncc(C(=O)NCCCOC(C)C)c(-c2ccccc2)n1 | 4.32
COc1cc2c(cc1OC)C(c1ccccc1)NC(C)(C)C2 (stereo not drawn) | -8.61
CC(=O)c1ccc(C(=O)N(CCCN(C)C)c2nc3c(F)cc(F)cc3s2)cc1 | -3.77
CCOc1ccc(-c2c(C)sc3ncn(CC(=O)N4CCOCC4)c(=O)c23)cc1 | -2.05

SMILES | % Inhibition @ 10 uM [%]
COc1ccc(N(CC(=O)NCc2ccc(C)cc2)S(C)(=O)=O)c(OC)c1 | -5.67
O=C(NC1(C(F)(F)F)NC(=O)N(Cc2ccco2)C1=O)c1ccc(F)cc1 (stereo not drawn) | -1.52
CC(=O)c1cnc2c(-c3ccccc3)c(COc3ccccc3)nn2c1C | 6.28
Cc1c(Cl)c(C(=O)NC2CCCCCC2)nn1C | 0.385
COc1ccc(-c2nnc(-c3ccccc3)n2-c2ccccc2)cc1 | -5.92
COc1ccc(C2C(C#N)=C(N)Oc3[nH]nc(C)c32)cc1COc1ccccc1C (stereo not drawn) | -0.661
Cc1ccc2nc(O)c(CN(C)S(C)(=O)=O)cc2c1 | 2.62
CCc1nnc(O)c2cc3cc(OC)ccc3n12 | 11.8
C=CCOC(=O)C1=C(C)N(C)C(=O)NC1c1cn(-c2ccccc2)nc1-c1ccccc1 (stereo not drawn) | -1.93
CC(C)COc1ccc(-c2nn(-c3ccccc3)cc2CO)cc1 | 0.0598
COc1c2c(nc3ccccc13)OC(C(C)(O)COC(C)=O)C2 (stereo not drawn) | -2.91
O=C(Cn1c2c(c3ccccc31)CCCC2)N1N=C(C(F)F)CC1(O)C(F)F (stereo not drawn) | 1.03
Cc1ccc2nc3c(O)n(CC(=O)Nc4cccnc4Cl)ncc-3c2c1 | -0.349
CCCC(C)N1CCN(S(=O)(=O)c2ccc(-c3cc(C(F)(F)F)no3)s2)CC1 (stereo not drawn) | 0.00978
Cc1cccc(NC(=O)C2CC(=O)N(c3cccc(Cl)c3C)C2)c1C (stereo not drawn) | -4.14
CCN1CCC(NCCc2cccc(F)c2)CC1 | 3.19
CC(C)c1nnc(NC(=O)CSc2nnc3c4ccccc4n(C)c3n2)s1 | 6.31
CNC(=O)CN(c1cc(C)ccc1C)S(=O)(=O)c1ccc(C)cc1 | 0.00477
CCCOn1nnc2ccc([N+](=O)[O-])cc21 | -4.58
Cc1cc(-c2cccc(Br)c2)c(C#N)c(N)n1 | -1.5
CCC(=O)Nc1ccc(S(=O)(=O)Nc2nnc(CC)s2)cc1 | 4.42
COc1ccc(/C=C/C(=O)C23CC4CC(CC(C4)C2)C3)cc1 | -1.97
O=C(CCCN1C(=O)c2ccccc2C1=O)Nc1ccccc1C(=O)NC1CCCCC1 | 5.12
COc1ccc(-n2ncc(C(=O)N3CCN(C)CC3)c2C2CCN(C(=O)OC(C)(C)C)CC2)cc1 | -8.99
Cc1nc(NC(=O)COc2ccc(Cl)cc2)sc1C(=O)N(C)C | -1.44
CC(C)(C)C1CCc2c(sc3ncnc(O)c23)C1 (stereo not drawn) | 0.161

SMILES | % Inhibition @ 10 uM [%]
COc1ccc(N(CC(=O)Nc2ccc(C(C)C)cc2)S(C)(=O)=O)cc1OC | 3.66
Nc1nc(N2CCOCC2)ncc1F | -1.75
Cc1cccc(NC2=NCC(C)(C)S2)c1C | 5.63
Cc1nc2cccnc2n1-c1ccc(C(=O)O)cc1 | 3.29
CCOc1cccc(CNC2CN3CCC2CC3)c1 (stereo not drawn) | 1.72
O=C(NC1(C(F)(F)F)NC(=O)N(C2CCCCC2)C1=O)C1CC1 (stereo not drawn) | 0.221
Cc1ccccc1N1C(=O)c2ccc(Oc3cccc(N)c3)cc2C1=O | -2.19
Cc1cccc(NC(=O)c2cccnc2)c1C | 2.46
CN1CCN(CCNC(=O)c2ccc3nc(-c4ccc(F)cc4)c(-c4ccc(F)cc4)nc3c2)CC1 | 8.94
CN1CCN(Cc2c(F)cccc2F)CC1 | -0.603
Cc1cc2c(n1Cc1ccccc1)C(=O)c1ccc(Br)cc1-2 | 1.4
COc1ccc(OC)c(NC(=O)COc2cccc3ccccc23)c1 | -1.78
COC(=O)c1cc2sc(C)cc2n1Cc1ccc(C)cc1 | -8.75
O=C(CN1C(=O)CSc2ncccc21)NCc1ccc2c(c1)OCO2 | 1.03
c1ccc(-n2nnnc2C2CCNCC2)cc1 | -9.03
C=CCNC(=O)C1C(=O)NC2(C)CC1c1ccccc1O2 (stereo not drawn) | -9.6
Cc1ccc(NC(=O)c2ccc(F)cc2)c(C)c1 | 1.83
O=C(NCCCO)c1nnc(Cc2c(F)cccc2Cl)o1 | 4.95
CC1=C(C)/C(=N/OC(=O)c2cccc(C)c2)C=C(Br)C1=O | -0.053
CCOC(=O)C1=C(C)N=c2s/c(=C\c3ccc(O)c(OC)c3)c(=O)n2C1c1ccc(Cl)cc1 (stereo not drawn) | 10.5
Cc1ccc(S(=O)(=O)N2CCN(CCNC(=O)C(=O)NCc3ccccc3)CC2)cc1 | 3.72
Cc1[nH]c(-c2ccc(F)cc2)cc1C(=O)NC1CCCC(C)C1C (stereo not drawn) | 0.813
CCOC(=O)C1=C(CNCc2ccccc2OC)NC(=O)NC1c1ccccc1 (stereo not drawn) | -6.91
CC(C)(C)NC(=O)C1CC(c2ccc(F)cc2)=NO1 (stereo not drawn) | -2.16
